The text below walks through data of the supplement of paper PMC11417369.

± gives the standard deviation of the averaged measurements. This is one part of the list.

The test deals with PfAP2-I AP2 domain 3 (GST-tagged). As to the kind of experiment: gcPBM binding intensity (ln(normalized median fluorescence intensity)); higher = stronger DNA binding. Summed up:
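The binding buffer was 1× PBS containing 1% milk, 0.2 mg/ml BSA, 0.5% salmon testes DNA and 0.03% Triton X-100. In it, GST-tagged P. falciparum DNA-binding domains expressed in E. coli were applied for 1 h to an Agilent 4 × 180k array of primer-extended double-stranded 36-bp intergenic genomic probes plus negative controls. Binding intensity, read with Alexa488 anti-GST antibody and a 488 nm scan, is the highest Masliner-normalised natural-log median intensity across replicate spots of either probe orientation.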
For “TCGTGAATGATTTAAGTACACACCGGTATTTATTCA [CACACA_site1564]”, the “gcPBM binding intensity (ln)” value came to 7.49 ± 0.6.
As to “GCATAAACGGATAATTAATTATATTATATTATATCA [CACACA_negctrl_site1519]”, the “gcPBM binding intensity (ln)” value stood at 7.49 ± 0.55.
As to “TTATCCTTGTAACAATGTACACATTATTTAATACTT [XGTACX_site1830]”, the “gcPBM binding intensity (ln)” value stood at 8.04 ± 0.41.
Turning to “TATTGTTGTCTTTACACATGCAACAAAAGAAGAAAA [TGCATGCA_site911]”, the “gcPBM binding intensity (ln)” value is 7.84 ± 0.42.
On to “ATTTATTTATATATATTATTTGTTTTAATTTACTTA [XGTACX_negctrl_site246]”, for which the “gcPBM binding intensity (ln)” value was 7.4 ± 0.69.
The figure for “TTTTTTTTTTGATGCACACACCTGAACGAGTTAATA [CACACA_site4329]” is 9.64 ± 0.26.
Turning to “CATACAGATGGACACACACACACACCCACAGACAAA [CACACA_site4431]”, the “gcPBM binding intensity (ln)” value came out at 8.04 ± 0.28.
The figure for “AACAGGTCATAATTTACACACTATATATCTTATTAT [CACACA_site6461]” is 8.13 ± 0.64; for “TTCATAAGAAGGAACTGTACATATTTTTCATTTTTT [XGTACX_site6770]” it is 7.52 ± 0.54.
“TTATATGTATATATATGTATATATATATATATATAG [TGCATGCA_negctrl_site461]”: the “gcPBM binding intensity (ln)” value came to 8.02 ± 0.23.
Turning to “TACAATCTTTCATTATGTACTTAACATTTTTTCTGT [XGTACX_site8752]”, the “gcPBM binding intensity (ln)” value was determined as 7.89 ± 0.6.
In the case of “TGTATACCTTAATATACACACATACAGATATATATA [CACACA_site4860]”, the “gcPBM binding intensity (ln)” value amounted to 7.78 ± 0.64.
On to “CGATTTTTTTTTTATTGTACTTGCTCGCATGCAATA [XGTACX_site4727]”, for which the “gcPBM binding intensity (ln)” value came out at 7.71 ± 0.59.
Turning to TGTTTTATTTAGAAGGTGCACATTAATATTAAATAA, the “gcPBM binding intensity (ln)” value was found to be 11.3 ± 0.45.
The result for “ATATGCATTTTTATACGTACATATTTCTTTTCGTTA [XGTACX_site1497]” reads 8.23 ± 0.54.
Take “ACAAAAGGGGAATACACACACATATATAAATAAATA [CACACA_site7111]”: the “gcPBM binding intensity (ln)” value was 7.95 ± 0.45.
“CATATTTTTATGAGATGTACAATAAGAAATATGTAA [XGTACX_site2389]”: the “gcPBM binding intensity (ln)” value is 7.99 ± 0.54.
The figure for “TTTTTTTTTTTATATACTGGAAATATATTTAATTTA [GTGCAC_negctrl_site250]” is 7.87 ± 0.61; for “TACAAAATAGTTTACACACACATATATATACATATA [CACACA_site2615]” it is 7.77 ± 0.37.
Take “TTTATTTTTATGGTCACACATATTTTTAAAACTATA [CACACA_site4372]”: the “gcPBM binding intensity (ln)” value came to 7.82 ± 0.5.
The figure for “CACCCATAGAAACACACACACGCATAAAAAAAAAAA [CACACA_site1513]” is 8.19 ± 0.7.
The figure for “TAAAAACAAAAATGCACACATAATAAGCATATGTAT [CACACA_site3469]” is 8.54 ± 0.11; for “TATTCTAATATTTATACACACATAACTTTGATAAAT [CACACA_site6418]” it is 7.61 ± 0.54.
The result for “TATATATAGCATATTTCACACACACCGAATGAATAT [CACACA_site9182]” reads 7.8 ± 0.45; that for “ATTAATTATTGTAATTGTACATTTTATATATATCCA [XGTACX_site2105]”, 7.7 ± 0.55; that for “TTTCTTGGGAGACATGCATGTACCAGAACAAAATAA [TGCATGCA_site272]”, 8.21 ± 0.61.
In the case of “TATATAAATAGACACACACACATATAAATATAAATA [CACACA_site6503]”, the “gcPBM binding intensity (ln)” value was 7.84 ± 0.46.
The figure for “TACCTAGGATTAAAGTGTCCACATAATTTAAATAAT [XGTACX_site6736]” is 7.79 ± 0.44.
The figure for “TTCTTCTGTTTTATTACACACCATTTTGTGGATACA [CACACA_site5181]” is 8.38 ± 0.71; for “TTTTTTATTATATAATTGTATATAAAATTATAATTT [GTGCAC_negctrl_site733]” it is 7.67 ± 0.47.
The result for “TAACTTGAATGGATATGTACATATATATATATATAT [XGTACX_site5990]” reads 9.24 ± 0.12; that for “AATAAACATATATACACACACAAAAAAAAAAACATA [CACACA_site424]”, 7.67 ± 0.52.
On to “TAGATGTATGTACATACACACATATATAAATAAATA [CACACA_site1788]”, for which the “gcPBM binding intensity (ln)” value turned out to be 7.83 ± 0.51.
On to “ATTCATCTATTTTGTAGTACTAAATATATATCTACT [XGTACX_site8790]”, for which the “gcPBM binding intensity (ln)” value amounted to 7.93 ± 0.73.
The figure for “GCGAAATATTATTATAGTATACAAATACTTCTATGA [CACACA_negctrl_site197]” is 7.42 ± 0.52.
The result for “GGTAAGTACGACTTGACACACATACCCATATATATA [CACACA_site4837]” reads 8.36 ± 1.1; that for “ACAGTATCTGGTAGCTGTACGAGTCGTAGAGTGCAG [XGTACX_site2015]”, 8.38 ± 0.33; that for “GGTGTTAAAAAATACACACACAAAAAAAAAAAAAAA [CACACA_site138]”, 7.95 ± 0.58.
The result for “TTTTTTTAATTTGGTTGTACTTAAAAAAAAAACAGA [XGTACX_site5788]” reads 8.01 ± 0.16; that for “ATTATTTTACTAAAAGATATTCCTTTTTTTTGTACT [CACACA_negctrl_site998]”, 7.63 ± 0.69.
Take “ATATGGCTAAAAGTTGCACACACACTAATAAAAAAA [CACACA_site9082]”: the “gcPBM binding intensity (ln)” value turned out to be 8.68 ± 0.15.
The result for “TATGTATTTATATTAACACACAAAAAAAAAAAAAAA [CACACA_site5070]” reads 8.22 ± 0.54.
For the sequence “ATATGCCTAATAAAATGTACGTTTGTTTTATTTATT [XGTACX_site3833]”, the “gcPBM binding intensity (ln)” value is 7.83 ± 0.54.
The result for ATATATATATTTTGGTAGCACCTCCTTTTTTTTTTT reads 9.315 ± 0.092.
